# Test system: Mycobacterium tuberculosis
# Assay: Rescue fold, ratio of IC50 for antimycobacterial activity against Mycobacterium tuberculosis HN878 in presence of 50 uM undecaprenyl phosphate to IC50 for antimycobacterial activity against Mycobacterium tuberculosis HN878
row,Structure (SMILES),Ratio IC50
1,CC(C)=CCC/C(C)=C/CCNCCNC1C2CC3CC1CC(F)(C3)C2 (stereo not drawn),5.9
2,CC(C)=CCC/C(C)=C/CCNCCNC1C2CC3CC(C2)CC1C3 (stereo not drawn),9.7
3,CC(C)CCCC(C)CCNCCNC1C2CC3CC(C2)CC1C3 (stereo not drawn),9.4
4,CC(C)=CCC/C(C)=C/C(C)(C)NCCNC1C2CC3CC(C2)CC1C3 (stereo not drawn),14
5,CC(C)=CCC/C(C)=C/CNCCNC1C2CC3CC(C2)CC1C3 (stereo not drawn) [SQ109],15
6,CC(C)=CCC/C(C)=C/CNCCOC1C2CC3CC(C2)CC1C3 (stereo not drawn),8.2
7,CCCCCCCCCCCNCCNC1C2CC3CC(C2)CC1C3 (stereo not drawn),13
8,CC(C)=CCC/C(C)=C/COCCNC1C2CC3CC(C2)CC1C3 (stereo not drawn),2.1

# From ChEMBL document CHEMBL5331106, “Investigation into the Mechanism of Action of the Tuberculosis Drug Candidate SQ109 and Its Metabolites and Analogues in Mycobacteria” (J Med Chem, 2023)
